# Measurements reported in the supplement of paper PMC3334620.
# Over roughly 33,000 sequences, “E-score (-0.5 to 0.5)” has its median near -0.021; the highest 2% begin near 0.32. Some of the results follow.
# Target: T1, Zap1 (UniProt P47043)
# T1 sequence: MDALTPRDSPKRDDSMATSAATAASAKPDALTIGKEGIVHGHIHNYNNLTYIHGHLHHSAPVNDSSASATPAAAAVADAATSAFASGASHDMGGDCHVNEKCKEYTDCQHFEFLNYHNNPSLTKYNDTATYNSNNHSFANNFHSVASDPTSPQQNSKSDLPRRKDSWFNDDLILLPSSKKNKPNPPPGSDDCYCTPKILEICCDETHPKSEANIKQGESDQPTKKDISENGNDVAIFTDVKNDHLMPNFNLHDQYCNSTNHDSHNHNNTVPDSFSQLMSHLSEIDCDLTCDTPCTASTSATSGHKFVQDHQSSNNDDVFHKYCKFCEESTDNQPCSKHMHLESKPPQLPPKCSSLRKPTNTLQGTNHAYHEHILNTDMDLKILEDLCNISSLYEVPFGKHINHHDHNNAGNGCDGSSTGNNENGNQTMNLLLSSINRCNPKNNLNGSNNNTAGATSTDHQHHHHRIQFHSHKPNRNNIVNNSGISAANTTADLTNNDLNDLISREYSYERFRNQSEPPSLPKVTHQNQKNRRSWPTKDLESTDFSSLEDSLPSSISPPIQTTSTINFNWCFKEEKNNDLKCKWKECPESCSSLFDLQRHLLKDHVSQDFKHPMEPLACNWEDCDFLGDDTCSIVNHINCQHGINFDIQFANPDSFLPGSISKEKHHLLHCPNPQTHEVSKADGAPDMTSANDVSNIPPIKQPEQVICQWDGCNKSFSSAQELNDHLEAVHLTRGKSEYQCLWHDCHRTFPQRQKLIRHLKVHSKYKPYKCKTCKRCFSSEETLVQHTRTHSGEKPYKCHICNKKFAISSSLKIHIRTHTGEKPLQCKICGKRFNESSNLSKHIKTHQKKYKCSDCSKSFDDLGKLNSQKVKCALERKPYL
# Assay: PBM E-score (8-mer binding enrichment) (E-score (-0.5 to 0.5)); higher = stronger / more preferred TF binding; most listed sequences are background and not binding sites
# Conditions: protein concentration: 200 nM; construct: GST-full length
# Protocol: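 Universal 'all 10-mer' protein binding microarrays (Agilent AMADID 015681) probed with GST-tagged S. cerevisiae TFs (full-length or DBD) made by in vitro transcription/translation (PURExpress), about 100-200 nM. Bound TF was detected with fluorescent anti-GST. Each ungapped 8-mer (which stands for itself and its reverse complement) is scored by the PBM enrichment score (E-score), a modified Wilcoxon-Mann-Whitney statistic from -0.5 to +0.5, computed with the Universal PBM Analysis Suite. Scale: above 0.35 generally sequence-specific binding.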
row,Sequence,PBM E-score
1,AGGTTGCG,0.333
2,ACCGTTGC,0.0636
3,CTAATAGC,-0.172
4,ATGTCAAG,-0.0774
5,AAATAGGC,-0.206
6,AGTATGGG,0.134
7,TAAATGGA,0.0234
8,GAAGACCC,0.236
9,CCCAAATA,0.0595
10,GAGGCGCA,-0.202
11,GTATAAAC,0.17
12,AAGTGCGC,-0.119
13,CATAAGAA,0.14
14,GGAGCCTA,-0.0319
15,CCACGCAG,0.108
16,GCGAACCA,0.136
17,ATGAAAGG,0.0617
18,TACCTTGA,0.337
19,AATTATAA,0.167
20,TAAGAAGA,0.128
21,ATACCGAT,-0.0434
22,AAAGATGC,-0.0891
23,ACCATACT,0.163
24,CGACTCCC,-0.183
25,TCCCCCCA,-0.409

row,Sequence,PBM E-score
1,CAAATGAA,0.0531
2,ATGCGATA,-0.0301
3,GCGGTTTA,0.0853
4,ATGCGAGG,0.0405
5,GCCTTGAA,0.0337
6,AATCCTAG,-0.0394
7,CCCGCAGA,0.0927
8,TCTACACA,0.0487
9,AAAACCCC,0.276
10,AAGTTCCA,-0.0841
11,ATAGTTTG,0.201
12,CAAGGGCC,0.0489
13,AGCCACGC,-0.207
14,AAATTGCC,0.0634
15,GAGGCTCC,-0.155
16,TAAAGTTA,0.178
17,CCGCGACC,0.31
18,ATGGCTCC,-0.196
19,CCCGGTCG,-0.0704
20,CAGCAACG,0.126
21,GGACGACC,-0.09
22,AGCTAGAA,-0.0496
23,AGCTGAGA,-0.132
24,AAACGTTC,0.141
25,CTACCCCA,0.139

row,Sequence,PBM E-score
1,CTGATCTA,0.00891
2,ACCGCTCT,-0.13
3,AGCAGCGG,-0.00451
4,CGCTTGTC,-0.0941
5,GAGACCGC,-0.0744
6,GTGCTGTA,-0.06
7,CATGAATC,-0.00321
8,AATCGTAA,0.132
9,CCAGCATC,-0.0956
10,GATAAAAC,0.205
11,CCGAGTCA,-0.0379
12,TACCCGGA,0.26
13,AGTCAGCC,-0.327
14,CCAATGGC,-0.087
15,CACCAAAA,0.235
16,CACTAGGC,-0.193
17,AGGAGTGG,-0.0525
18,TCTGGTCA,0.137
19,AACACTGC,0.0234
20,ACTACGGA,-0.17
21,ATTCAAGC,0.0343
22,ACCAGGGC,-0.129
23,ATCGGTAG,-0.0461
24,CAATCATA,-0.00937
25,TAAGGGCA,-0.0345

row,Sequence,PBM E-score
1,ATAAAGAA,0.0657
2,TAGTCATA,-0.227
3,AATACCAT,0.201
4,GGAAGACA,-0.156
5,CATGTAAA,-0.231
6,ACTATTAG,0.0955
7,AAAAGGTA,0.405
8,ACTCCGAA,0.047
9,CACTACTG,-0.154
10,GAAGGCCA,-0.0514
11,AATAACAA,0.0521
12,CCAAGCCA,-0.122
13,TCGTACAA,0.148
14,AAGAAAAG,-0.016
15,GGGGCGTA,-0.0203
16,CCGGCTGA,-0.129
17,CACTACCG,0.129
18,ACTTTGTC,0.0752
19,CCAGCTCA,-0.164
20,ATCTTATA,0.206
21,CCCAGATA,-0.104
22,ATTGACCG,0.102
23,CAACGCGG,0.0863
24,ACAGCCGC,-0.195
25,ACCATTCA,0.228

row,Sequence,PBM E-score
1,GGTGCGAA,0.068
2,ATAGAGTA,-0.0955
3,TCGACACA,-0.0281
4,ACAAGCCG,-0.223
5,GAACACGA,0.0697
6,AAGATAGT,0.0593
7,GGTTCAAC,0.115
8,AAGGGCCA,0.0177
9,CGCGCAAA,0.2
10,TCCACTAA,0.11
11,ACTCCTAA,0.0931
12,CTGGGTAA,0.185
13,ACTGCGTA,-0.248
14,ATAACATA,0.146
15,CGCCCGAG,-0.035
16,ACCCCGAT,0.197
17,AGCTTTCA,0.00388
18,AATGGCCA,0.284
19,AGCGTCGA,-0.0253
20,CAAACAGC,-0.00325
21,CGACGGTC,-0.00952
22,GGTTGGAC,-0.0843
23,AAGTGCTA,-0.303
24,CAAACAAA,0.169
25,AAGGGAGA,-0.189

row,Sequence,PBM E-score
1,TGGCTACA,-0.0519
2,CACCTTGC,-0.0856
3,GCTGCATA,-0.0279
4,CTCATCAC,-0.0421
5,GATCATGA,0.29
6,AATGTGCT,-0.0872
7,TCCGGTCA,-0.00083
8,ACGCTTTC,-0.0677
9,CTGGCATC,-0.278
10,AGGGCCTA,-0.171
11,CTATGGTC,0.144
12,CTGGCGTA,-0.341
13,AAGGTATC,0.255
14,AATCCGCA,0.151
15,CTGCCCCA,-0.083
16,ATCGGGTG,0.202
17,ATACACGC,-0.091
18,GCTATGAA,-0.0097
19,GAAACTAA,0.0657
20,AACACAAT,0.152
21,GTCCAGTA,-0.0637
22,ATTGTACG,-0.165
23,AGCTTATA,-0.119
24,ACTTCACC,0.0658
25,CCCTGAGC,0.0436

row,Sequence,PBM E-score
1,ACCATCAG,0.102
2,CATTGGAA,0.0492
3,CGGGGGAC,-0.228
4,AATCTCCA,-0.0264
5,CAAAGTAG,-0.0671
6,ACTATAGG,0.0613
7,ACTCGACT,-0.153
8,AGGCAGAC,-0.138
9,GACTTCTA,-0.176
10,ACGGTGGA,-0.137
11,CCTGAACA,-0.0412
12,GAGCCCAC,-0.258
13,AGTGAAAT,-0.158
14,CCTAAGTC,-0.0361
15,CCTCTAAG,0.139
16,CTGGCCTC,-0.166
17,GGGCGTAA,-0.101
18,AGGAGTTC,-0.274
19,AACTTCAG,-0.0949
20,AAGTGTAC,0.0488
21,GGTTGAAA,0.0732
22,CGCAAACC,0.0968
